Source: PubChem BioAssay AID1159614 (National Center for Advancing Translational Sciences (NCATS), 2016)
Out of some 45,000 compounds screened, about 65 (0.1%) were called active. The call rests on the fitted dose curve; in most records, active means well fitted activation curve with a large enough effect; inconclusive means small, poorly fitted or top-dose-only effect; inactive means no such curve, though single readings can be large or run the other way. This is one part of the list.

Biological target: Galactocerebrosidase (Homo sapiens) (UniProt P54803)
Assay: A Novel Cell-Based Assay to Identify Small Molecules for B -Galactocerebrosidase; further: 0% is about no effect; nearly all actives have a fitted effect of over 65% in size
Details: 145M-Twi-hGALC-G270D cells, HMU-beta-Gal fluorescence, 48 h; series mostly up to 57.5 µM; activation: at the top concentration
Outline: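 qHTS, 1536-well; 145M-Twi-hGALC-G270D cells (WT line also made) in DMEM/F12 + 10% FBS; compound incubation on live cells; HMU-β-gal 0.1 mM final, pH 5.2, NaTC; carbonate stop; fluorescence increase = enhanced residual activity.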

UniProt P54803, sequence (P54803 whole entry, looked up): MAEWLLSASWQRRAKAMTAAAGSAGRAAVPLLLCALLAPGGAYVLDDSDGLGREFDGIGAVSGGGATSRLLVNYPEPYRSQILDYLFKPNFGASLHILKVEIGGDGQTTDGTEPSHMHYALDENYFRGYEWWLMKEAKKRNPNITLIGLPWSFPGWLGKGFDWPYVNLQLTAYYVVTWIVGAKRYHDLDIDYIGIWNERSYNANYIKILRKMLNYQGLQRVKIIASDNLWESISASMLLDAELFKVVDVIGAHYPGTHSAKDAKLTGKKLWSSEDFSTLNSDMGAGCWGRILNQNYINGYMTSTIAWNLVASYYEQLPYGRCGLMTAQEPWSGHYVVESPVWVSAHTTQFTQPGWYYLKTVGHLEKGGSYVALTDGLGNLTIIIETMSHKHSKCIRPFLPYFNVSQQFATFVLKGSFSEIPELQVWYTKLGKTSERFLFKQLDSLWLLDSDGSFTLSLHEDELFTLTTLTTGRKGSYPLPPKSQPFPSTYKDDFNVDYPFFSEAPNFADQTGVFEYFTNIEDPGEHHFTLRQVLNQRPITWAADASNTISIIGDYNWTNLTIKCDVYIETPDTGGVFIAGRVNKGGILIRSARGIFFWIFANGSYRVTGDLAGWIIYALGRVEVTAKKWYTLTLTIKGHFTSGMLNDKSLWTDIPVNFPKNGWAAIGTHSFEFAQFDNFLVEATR

activation, inactive:
CCCCCS(=O)(=O)c1oc(-c2cccs2)nc1S(=O)(=O)c1ccc(C)cc1 0.144%, N[C@@H](CSSC[C@H](N)C(=O)O)C(=O)O -17.6% [at 0.46 µM], CC(C)(C)OC(=O)N1CCC(c2c(C(=O)N3CCC(c4ccccc4)C3)cnn2-c2cccc(Cl)c2)CC1 (configuration not stated) -18.1%, COc1ccc(C2CC(=O)N(CC(=O)Nc3cc(C)ccc3C)c3ccccc3S2)cc1 (configuration not stated) -4.15%, CCCCN(CCCC)C(=O)c1cc2c(=O)n3cccc(C)c3nc2s1 0.195%, CCCCc1ccc(NC(=O)c2cc3c(=O)n4ccccc4nc3s2)cc1 -16.9%, COc1ccccc1-c1nnc(SCC(=O)c2ccc(Cl)cc2)n1-c1ccccc1 11.6%, CC(NC(=O)c1ccc2c(c1)CCN2S(=O)(=O)c1ccc(Cl)cc1)c1ccccc1 (configuration not stated) -15.9%, CCOc1ccc(NC(=O)CSc2nc3c(oc4ccccc43)c(=O)n2-c2ccccc2C)cc1 1.5%, Cc1cc2n(n1)C(c1cc(C(C)(C)C)c(O)cc1O)Nc1ccccc1-2 (configuration not stated) -19.6%, CC(C)=CCC1C(=O)N(c2ccccc2)N(c2ccccc2)C1=O -5.51%, CCOc1ccc(C(=O)N2CCC(c3nc4ccccc4o3)CC2)cc1 -14.7%, CSc1cccc(NC(=O)CN2C(=O)COc3ccc(Cl)cc32)c1 -9.87%, CCOc1ccc(OCC)c(NC(=O)c2nnn(CC(=O)Nc3ccc(C)cc3C)c2N)c1 -14.2%, CCCCOc1ccc(C(=O)Nc2cccc(-c3nc4cccnc4s3)c2)cc1 -24.8%, Cc1ccc(-c2nc3sc(CCNC(=O)c4ccc(Br)o4)c(C)n3n2)cc1 -15.1%, COc1ccc(-c2cc3ccc(O)c(CN4CCOCC4)c3oc2=O)cc1OC 6.53%, COc1ccc(NC(=O)COc2ccc(-c3nn(C)c(=O)c4ccccc34)cc2)cc1 -9.68%, COc1ccccc1CNC(=O)C(NS(=O)(=O)c1cccs1)C(C)C (configuration not stated) -9.44%, COc1ccc(C2=NN(CC(=O)NCCc3ccc(OC)c(OC)c3)C(=O)CC2)cc1 -10.7%, COc1ccc(N(C)C(=O)c2cn(C3CCCCC3)c(=O)c3c2c2ccccc2n3C)cc1 -16.2%, Cc1ccc(NC(=O)NCCc2c(C)nn(C)c2C)cc1Cl -3.93%, CCn1ccc2cc(S(=O)(=O)N3CCCN(C(=O)Nc4cccc(Cl)c4)CC3)ccc21 -36.5%, COc1ccccc1NC(=O)C(=O)NCCc1csc(-c2cccc(F)c2)n1 -25.6%, CCCCN(CC)CCCNC(=O)CCN1N=C(c2ccc(OC)cc2)CCC1=O -10.3%, CCOC(=O)c1c(S(=O)(=O)N2CCCC(C(=O)Nc3cccc(Cl)c3)C2)c(C)n(C)c1C (configuration not stated) -19%, Cc1ccc(OCC(=O)Nc2nnc(SCc3cc(=O)c4ccccc4[nH]3)s2)cc1 -0.0249%, CCOc1ccccc1C(=O)Nc1ccc2nc(N(CC)CC)cc(C)c2c1 -5.95%, CCOc1ccc(CNS(=O)(=O)c2cc3c(cc2C)NC(=O)CO3)cc1OC 6.08%, COc1ccccc1NC(=O)C1=C(C)Nc2ncnn2C1c1ccccc1C(=O)O (configuration not stated) -20.3%, COc1cccc(CNC(=O)c2cc3c(s2)-c2ccccc2OC3)c1 -2.95%, COc1ccc(-n2c(=O)c3c4c(sc3n(Cc3ccc(F)cc3)c2=O)CCCC4)c(OC)c1 -10.9%, COc1ccc(NC(=O)c2cc(C3CC3)nc3c2c(C)nn3-c2ccccc2)cc1 -13.8%, Cc1cccc(NC(=O)c2c(C)oc3ncn(CC(C)C)c(=O)c23)n1 -5.71%, CC(=O)N1CCc2cc(S(=O)(=O)CCC(=O)N3CCN(c4cccc(C)c4C)CC3)ccc21 -13.3%, Cc1cccc(OCC(O)CNC(C)(C)C)c1C (configuration not stated) -13%, Cc1nc2c(C(=O)NCc3ccccc3)c[nH]n2c(=O)c1Cc1ccccc1Cl -4.85%, Cc1sc2ncn(CC(=O)N(C)c3ccc(Br)cc3)c(=O)c2c1S(=O)(=O)N1CCC(C)CC1 -10.8%, CCOc1ccc(-c2nnc(Nc3ccc(S(N)(=O)=O)cc3)c3ccccc23)cc1 -10.4%, CCCOC1(C(F)(F)F)NC(=O)N(c2ccc(Cl)cc2)C1=O (configuration not stated) -10.8%, CC(C)(C)c1ccc(OCC(=O)N2CCC(c3nc4ccccc4s3)CC2)cc1 -7.56%, Cc1cc(C)c(NC(=O)CSc2nc(=O)[nH]c3c2CCCC3)c(C)c1 -20%, COc1ccc(NC(=O)c2noc3c2CCCC3)cc1Cl -16.3%, COc1cccc(NC(=O)Nc2cccc(-c3cn4cccnc4n3)c2)c1 -8.84%, O=C(NCCc1ccccc1)c1cc(-c2ccc(Cl)cc2)on1 -11.2%, Cc1ccc(NC(=O)Nc2ccc3c(c2)N(C)C(=O)c2ccccc2S3)c(C)c1 8.33%, COc1ccccc1NC(=O)c1c(NCc2ccc(OC)c(OC)c2OC)sc2c1CCCC2 -11%, CCOC(=O)c1c(C)[nH]c(C)c1S(=O)(=O)NCC(=O)Nc1cc(C)ccc1OC -15.1%, O=C(NC(=O)c1ccc(F)cc1)Nc1ccc(-c2cc(C(F)(F)F)nn2-c2ccccc2)cc1 -16.5%, O=C(NCCc1csc2nc(-c3ccccc3F)nn12)c1ccco1 -11.9%, CN1C(C(=O)c2ccccc2)=C(OC(=O)c2ccc(Br)cc2)c2ccccc2S1(=O)=O -7.77%, Cc1oc2c(c(C)cc3oc(=O)c(CC(=O)NCCc4ccccc4)c(C)c32)c1C 10.8%, CN1CCN(c2cc3c(cc2F)c(=O)c(C(=O)O)cn3-c2ccc(F)cc2)CC1 -7.68%, O=C(O)CCCC[C@@H]1SC[C@@H]2NC(=O)N[C@@H]21 -17.9%, COc1cccc(C2C=C(c3ccc(C)c(C)c3)Nc3nnnn32)c1OC (configuration not stated) -9.01%, Cc1ccc(-c2c(CN3CCN(c4cccc(C(F)(F)F)c4)CC3)csc2C)cc1 2.94%, CCOC(=O)c1ccc(Nc2nc3ccccc3nc2NS(=O)(=O)c2ccc(Cl)cc2)cc1 -3.22%, CCN1CCN(CCCNC(=O)c2cnn(-c3ccccc3)c2C2CCN(C(=O)OC(C)(C)C)CC2)CC1 -11.1%, COc1ccc(N2CCN(S(=O)(=O)CCNC(=O)C(c3ccccc3)c3ccccc3)CC2)cc1 -18.5%, COCC(=O)Nc1c(I)c(C(=O)NCC(O)CO)c(I)c(C(=O)N(C)CC(O)CO)c1I (configuration not stated) -5.77%, O=C1CSC2(C(=O)N(Cc3ccccc3F)c3ccccc32)N1c1ccc(F)cc1 (configuration not stated) -33%, COc1cc(NC(=O)c2ccc(C)cc2)ccc1NC(=O)c1cc2ccccc2o1 -0.195%, Cc1ccc(C)c(CN2C(=O)C(=O)c3ccccc32)c1 -11%, Cc1cc2nn(-c3ccccc3)nc2cc1NC(=O)c1cccc2c(Cl)cccc12 -24.8%, COc1ccc(-n2ccnc2SCC(=O)Nc2ccc(F)cc2F)cc1 -3.34%, O=C(NCCc1ccccc1)c1ccc(CS(=O)(=O)c2ccc(Br)cc2)o1 -10.5%, Cc1ccc2onc(CNC(=O)N3CCN(c4cccc(C)c4C)CC3)c2c1 -11.9%, COc1ccc(CCC(=O)N2CCc3c([nH]c4ccccc34)C2c2ccc(F)cc2)cc1 (configuration not stated) -12.4%, Cc1coc2ccccc2c1=O -13.3%, CCSc1nnc2n(-c3cccc(C)c3)c(=O)c3c4c(sc3n12)CCCC4 -18.1%, CCC(=O)N1c2ccccc2CC1C(=O)NCc1ccc(OC(C)C)cc1 (configuration not stated) -4.59%, CCN(CCCNC(=O)Cn1ncc2c([nH]c3ccc(C)cc32)c1=O)c1cccc(C)c1 -9.74%, Cc1nc2cccnc2n1-c1cccc(C(=O)N2CCN(c3ccc(Cl)cc3)CC2)c1 -5.03%, CCc1ccccc1NC(=O)c1ccc2c(c1)N(Cc1cccc(Cl)c1)C(=O)c1ccccc1S2(=O)=O -7.19%, Cc1csc2nc(-c3cccc(NC(=O)C(C)C)c3)cn12 -12.2%, CCOC(=O)Nc1ccc(NCc2ccc(F)cc2)nc1N -12.5%, CCOc1ccc(-c2nc(SCC(=O)Nc3ccc4c(c3)OCO4)c(-c3ccc(F)cc3)[nH]2)cc1 -12.6%, COc1ccc(C2CC(=O)Nc3c2c(C)nn3-c2nncc(-c3ccc(C)cc3)n2)c(OC)c1OC (configuration not stated) -14.9%, Cc1cccc(CCNC(=O)c2sc3nc4n(c(=O)c3c2C)CCCC4)c1 -6.65%, CCc1ccc(CNC(=O)C2CCN(c3nn4cc(-c5ccc(F)cc5)nc4s3)CC2)cc1 -7.78%, Cc1cccc(-c2nnc(C3CCN(S(=O)(=O)c4cccc(Cl)c4)CC3)o2)c1 -13.7%, COc1cc(C2NC(=O)c3c(sc4c3CCN(C)C4)N2)cc(OC)c1OC (configuration not stated) -12.4%, CCOc1cc2[nH]c(=O)n(Cc3ccc(C(=O)N4CCN(c5cccc(Cl)c5)CC4)cc3)c(=O)c2cc1OCC -6%, CC(=O)CSc1nnc2[nH]c(=O)cc(N)n12 -23%, Cn1nc(C(=O)Nc2ccc(F)c(Cl)c2)c2c1-c1ccccc1S(=O)(=O)C2 -7.81%, O=C(Cn1c(=O)nc(-c2ccccc2)c2cc(Cl)ccc21)N1CCN(c2ccc(F)cc2)CC1 -22.4%, COc1ccc(Br)cc1CN1C(=O)c2ccccc2C1C(=O)NC1CCCCCC1 (configuration not stated) -1.29%, CCOC(=O)c1c(C)c(-c2ccccc2)n(CC(=O)NC2CCCCC2)c1C -13.3%, COC(=O)C1=C(C)NC(C)=C(C(=O)OC(C)C)C1c1cccc2nonc12 (configuration not stated) -15.9%, CCOC(=O)C1CCN(C(c2cccc(F)c2)c2c(O)cc(C)n(CCOC)c2=O)CC1 (configuration not stated) -39.3%, CCN(C(=O)c1cnc2ccc(C)cn2c1=O)c1ccccc1 -11.1%, CCOC(=O)c1c(C)[nH]c(C)c1S(=O)(=O)N1CCCC(C(=O)N2CCN(c3cccc(C)c3C)CC2)C1 (configuration not stated) -7.1%, COc1ccc(Cl)cc1NC(=O)c1nn(-c2ccc(C)cc2)c(=O)n(C)c1=O -9.2%, COc1cc(NC(=O)Cn2cnc(S(=O)(=O)N3CCCC3)c2)cc(OC)c1OC 2.92%, Cc1cccc(CNC(=O)CS(=O)(=O)c2cccc3nsnc23)c1 0.548%, O=C(Nc1ccc2c(c1)CCCN2C(=O)c1cccs1)c1ccccc1Cl -17.4%, CCc1ccc(NC(=O)C2CCN(c3nn4c(=O)cc(C)nc4s3)CC2)cc1 -0.503%
